Experimental data as given in PMC5460246.
These are yes or no findings as the source states them, for the method shown. For part of these data: In cells and extracts the contact can be indirect. Some binding calls cover weakened binding; strength is not graded here. Sequences can lack the tags named with a protein. Blank lines part the entries; values can stand above or below the molecule they belong to.

Protein sequences, listed by entry. Tags and fused reporters are not part of them.
UniProt P00546: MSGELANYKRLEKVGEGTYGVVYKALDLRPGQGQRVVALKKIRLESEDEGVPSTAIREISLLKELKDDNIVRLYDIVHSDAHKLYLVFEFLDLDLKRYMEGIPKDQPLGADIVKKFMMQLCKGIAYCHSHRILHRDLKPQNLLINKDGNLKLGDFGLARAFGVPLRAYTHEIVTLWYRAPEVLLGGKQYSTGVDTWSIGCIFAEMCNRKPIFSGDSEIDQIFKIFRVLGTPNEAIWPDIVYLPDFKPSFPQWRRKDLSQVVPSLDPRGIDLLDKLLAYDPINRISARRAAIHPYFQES

Columns and labels:
[1] = molecular target: T1, Clb3-HA (budding yeast) (UniProt P24870); assay: co-IP; immunoprecipitation of Clb3/Cdk1 from a yeast lysate expressing Clb3-HA, before a kinase assay; blot with antibodies against HA and PSTAIR
T1 sequence: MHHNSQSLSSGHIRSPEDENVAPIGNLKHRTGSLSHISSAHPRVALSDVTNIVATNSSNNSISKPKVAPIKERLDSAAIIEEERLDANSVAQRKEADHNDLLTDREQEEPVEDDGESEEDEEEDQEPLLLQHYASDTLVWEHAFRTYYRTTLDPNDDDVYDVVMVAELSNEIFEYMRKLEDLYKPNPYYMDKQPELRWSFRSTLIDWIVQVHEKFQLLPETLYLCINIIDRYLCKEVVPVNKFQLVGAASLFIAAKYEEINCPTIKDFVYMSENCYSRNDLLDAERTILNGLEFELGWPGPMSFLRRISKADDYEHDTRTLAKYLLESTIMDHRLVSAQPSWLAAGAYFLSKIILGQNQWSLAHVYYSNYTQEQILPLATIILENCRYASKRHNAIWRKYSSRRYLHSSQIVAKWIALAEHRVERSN

[2] = molecular target: T2, Ndd1 (two-hybrid fusion, Fig. S5f) (budding yeast) (UniProt Q08887); assay: two-hybrid; Yeast-two-Hybrid of Ndd1 with Clb2 and Clb3 (Fig. S5f); bait and prey not told
T2 sequence: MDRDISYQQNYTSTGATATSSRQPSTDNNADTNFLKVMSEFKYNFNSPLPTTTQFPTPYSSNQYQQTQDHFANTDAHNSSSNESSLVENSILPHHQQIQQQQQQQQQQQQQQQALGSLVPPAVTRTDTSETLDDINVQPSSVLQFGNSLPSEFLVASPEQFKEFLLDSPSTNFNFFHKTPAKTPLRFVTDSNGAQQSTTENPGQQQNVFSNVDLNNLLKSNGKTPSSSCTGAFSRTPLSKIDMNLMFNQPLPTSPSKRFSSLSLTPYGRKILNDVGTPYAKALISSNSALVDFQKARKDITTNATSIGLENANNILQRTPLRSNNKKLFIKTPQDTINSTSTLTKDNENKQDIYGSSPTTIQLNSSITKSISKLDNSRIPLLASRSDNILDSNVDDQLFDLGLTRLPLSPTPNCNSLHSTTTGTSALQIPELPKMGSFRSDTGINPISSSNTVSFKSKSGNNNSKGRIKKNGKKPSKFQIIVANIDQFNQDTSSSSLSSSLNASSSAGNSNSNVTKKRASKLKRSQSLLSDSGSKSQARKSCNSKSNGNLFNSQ

[3] = molecular target: T3, Fkh2 full-length (two-hybrid bait) (budding yeast) (UniProt P41813); assay: two-hybrid; LexA-Fkh2 baits (pBTM117) and AD-Clb1-6 preys (pACT4), overexpressed; yeast spotted onto SDII and SDIV selective media or on a membrane for beta-galactosidase activity
T3 sequence: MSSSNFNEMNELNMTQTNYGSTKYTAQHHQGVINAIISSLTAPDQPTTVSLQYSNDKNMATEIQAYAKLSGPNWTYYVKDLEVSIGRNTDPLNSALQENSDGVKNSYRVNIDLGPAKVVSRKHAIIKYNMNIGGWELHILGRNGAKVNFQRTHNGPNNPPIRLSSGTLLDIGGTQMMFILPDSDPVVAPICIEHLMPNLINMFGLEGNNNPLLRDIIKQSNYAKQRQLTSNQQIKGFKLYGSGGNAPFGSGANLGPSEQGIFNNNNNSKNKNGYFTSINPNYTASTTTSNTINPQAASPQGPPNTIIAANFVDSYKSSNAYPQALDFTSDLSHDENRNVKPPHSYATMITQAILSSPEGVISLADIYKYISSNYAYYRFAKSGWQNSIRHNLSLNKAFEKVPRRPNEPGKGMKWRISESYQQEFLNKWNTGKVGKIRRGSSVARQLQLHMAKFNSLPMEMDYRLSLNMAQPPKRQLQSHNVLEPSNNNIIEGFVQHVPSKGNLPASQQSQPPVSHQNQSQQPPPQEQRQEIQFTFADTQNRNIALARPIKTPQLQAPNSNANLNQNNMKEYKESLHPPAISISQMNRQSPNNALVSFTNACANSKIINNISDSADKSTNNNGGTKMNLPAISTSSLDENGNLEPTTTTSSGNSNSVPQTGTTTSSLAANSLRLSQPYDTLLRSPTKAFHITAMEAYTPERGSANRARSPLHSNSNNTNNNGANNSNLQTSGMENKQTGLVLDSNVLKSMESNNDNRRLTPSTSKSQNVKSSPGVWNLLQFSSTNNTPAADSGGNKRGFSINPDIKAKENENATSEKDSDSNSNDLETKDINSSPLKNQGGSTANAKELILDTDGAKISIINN

[4] = molecular target: T4, LexA-Fkh2_(387), truncated C-terminal region of Fkh2 (amino acids 387-862) (budding yeast) (UniProt P41813); assay: as above
T4 sequence: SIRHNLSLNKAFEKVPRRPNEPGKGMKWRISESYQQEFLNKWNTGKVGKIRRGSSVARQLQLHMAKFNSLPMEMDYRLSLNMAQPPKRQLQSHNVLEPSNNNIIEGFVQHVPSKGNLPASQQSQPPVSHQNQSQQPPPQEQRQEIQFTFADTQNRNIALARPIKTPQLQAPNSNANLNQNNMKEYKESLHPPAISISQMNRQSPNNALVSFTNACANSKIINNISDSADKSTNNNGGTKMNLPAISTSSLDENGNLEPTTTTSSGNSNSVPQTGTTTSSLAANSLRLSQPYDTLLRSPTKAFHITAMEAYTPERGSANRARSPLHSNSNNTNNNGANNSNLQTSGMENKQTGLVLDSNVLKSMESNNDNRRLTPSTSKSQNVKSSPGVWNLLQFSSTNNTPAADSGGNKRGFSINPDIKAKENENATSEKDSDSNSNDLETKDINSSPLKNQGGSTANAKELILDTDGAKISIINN

[5] = molecular target: T5, Ndd1 (GST pull-down, Supplementary Fig. S5g) (budding yeast) (UniProt Q08887); assay: pull-down; GST pull-down of Ndd1 with Clb2 and Clb3 (Supplementary Fig. S5g)
T5 sequence: T2 sequence

- binding [1]: binds
Molecule: Cdk1 (from UniProt P00546 1-298) (enzyme)

- binding [2]: binds
- binding [3]: binds
- binding [4]: binds
B1: AD-Clb2 (protein, UniProt P24869 1-491)
chain: MSNPIENTENSQNTSSSRFLRNVQRLALNNVTNTTFQKSNANNPALTNFKSTLNSVKKEGSRIPQFTRESVSRSTAAQEEKRTLKENGIQLPKNNLLDDKENQDPSSQQFGALTSIKEGRAELPANISLQESSSAKEIIQHDPLKGVGSSTEVVHNSVENEKLHPARSQLQVRNTESETDSGKKRPISTIVEQELPKKFKVCDENGKEEYEWEDLDAEDVNDPFMVSEYVNDIFEYLHQLEVITLPKKEDLYQHRNIHQNRDILVNWLVKIHNKFGLLPETLYLAINIMDRFLGKELVQLDKLQLVGTSCLFIASKYEEVYSPSIKHFASETDGACTEDEIKEGEKFILKTLKFNLNYPNPMNFLRRISKADDYDIQSRTLAKFLLEISLVDFRFIGILPSLCAAAAMFMSRKMLGKGKWDGNLIHYSGGYTKEELAPVCHMIMDYLVSPIVHDEFHRKYQSRRFMKASIISVQWALKVRKNGYDIMTLHE

- binding [5]: binds
B2: Clb2 (GST pull-down with Ndd1, Supplementary Fig. S5g) (protein, UniProt P24869 1-491)
chain: B1 chain

- binding [2]: binds
- binding [3]: binds
- binding [4]: binds
B3: AD-Clb3 (protein, UniProt P24870 1-427)
chain: T1 sequence

- binding [5]: binds
B4: Clb3 (GST pull-down with Ndd1, Supplementary Fig. S5g) (protein, UniProt P24870 1-427)
chain: T1 sequence
